PMC4336329 (PLoS ONE, 2015)
Hit rate of the full screen: of about 310,000 compounds, about 2,200 (0.71%) showed an effect of 50% or more. The effect is printed as a negative number. Some of the results follow.

Target: human ether-à-go-go-related gene (hERG) potassium channel (human, UniProt Q12809)
Test: primary screen, population patch clamp on CHO cells stably expressing hERG

Sequence of human ether-à-go-go-related gene (hERG) potassium channel (Q12809 whole entry, looked up): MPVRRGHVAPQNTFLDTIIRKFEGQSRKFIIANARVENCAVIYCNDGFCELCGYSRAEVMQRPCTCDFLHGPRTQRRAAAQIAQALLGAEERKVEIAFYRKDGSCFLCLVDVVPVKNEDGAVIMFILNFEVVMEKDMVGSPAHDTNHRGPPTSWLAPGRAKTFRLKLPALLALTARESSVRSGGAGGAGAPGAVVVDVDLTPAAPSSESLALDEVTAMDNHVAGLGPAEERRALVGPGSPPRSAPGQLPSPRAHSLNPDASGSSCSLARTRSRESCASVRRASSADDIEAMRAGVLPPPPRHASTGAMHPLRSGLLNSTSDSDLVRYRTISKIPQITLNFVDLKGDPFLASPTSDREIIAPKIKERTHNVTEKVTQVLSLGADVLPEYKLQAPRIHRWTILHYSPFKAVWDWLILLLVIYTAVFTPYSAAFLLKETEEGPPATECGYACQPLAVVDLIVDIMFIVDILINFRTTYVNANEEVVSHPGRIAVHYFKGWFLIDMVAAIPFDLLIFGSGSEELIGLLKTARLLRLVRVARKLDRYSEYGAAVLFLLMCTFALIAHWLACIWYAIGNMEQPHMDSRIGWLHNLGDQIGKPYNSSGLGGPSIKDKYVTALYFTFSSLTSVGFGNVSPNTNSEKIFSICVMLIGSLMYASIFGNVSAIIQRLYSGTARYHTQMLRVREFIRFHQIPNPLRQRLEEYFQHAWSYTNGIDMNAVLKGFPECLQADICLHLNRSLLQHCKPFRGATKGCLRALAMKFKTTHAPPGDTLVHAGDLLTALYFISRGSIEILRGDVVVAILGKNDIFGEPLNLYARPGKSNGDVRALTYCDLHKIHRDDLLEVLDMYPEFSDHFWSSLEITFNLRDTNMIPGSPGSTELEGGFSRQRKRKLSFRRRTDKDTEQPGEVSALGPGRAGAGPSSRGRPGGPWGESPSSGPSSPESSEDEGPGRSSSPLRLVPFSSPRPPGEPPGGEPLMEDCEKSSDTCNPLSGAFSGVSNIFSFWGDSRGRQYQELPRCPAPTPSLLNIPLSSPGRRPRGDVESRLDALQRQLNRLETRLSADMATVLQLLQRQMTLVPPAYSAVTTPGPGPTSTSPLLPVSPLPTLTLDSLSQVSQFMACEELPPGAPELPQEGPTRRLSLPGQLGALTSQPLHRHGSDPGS

Compound | hERG current change (%, negative = inhibition) at 1uM
CCN(CC(=O)Nc1ccc2c(c1)OCCO2)Cc1nc2cc(Cl)ccc2c(=O)[nH]1 | 7.69%
COCCn1cc(C(=O)NCCN(C)C)c2c3ccccc3n(C)c2c1=O | 11.7%
O=C(OCCOCCN=C1NS(=O)(=O)c2ccccc21)c1ccccc1Br | 8.71%
Cc1ccc2c(c1)N(S(=O)(=O)c1ccc(CN3C(=O)c4cccnc4C3=O)cc1)CCO2 | 15.9%
CN(Cc1ccc2nonc2c1)Cc1nc(Cc2cccc(F)c2)no1 | 10.2%
CCCCC1CC(CSc2ncn[nH]2)OC1=O (stereo not shown) | 10.2%
Cc1c(CC(=O)N[C@@H](C)C(=O)O)c(=O)oc2cc3c(cc12)CCC(C)(C)O3 | 14.2%
Cc1ccccc1CNC(=O)c1ccc(CSCc2ccccc2)cc1 | 12.7%
CCn1c(=O)n(CCOC)c(=O)c2c3c(sc21)CCCC3 | -6.15%
Cc1sc2ncnc(N3CCC(C)CC3)c2c1C | 9.71%
Cc1ccc(SC(C)C(=O)NCc2ccncc2)cc1 (stereo not shown) | 5.75%
CN(C(=O)C1CCC(CNS(=O)(=O)c2cccc3cccnc23)CC1)C1CCCCC1 (stereo not shown) | 8.2%
COc1ccc2oc(C(=O)c3ccccc3)c(N)c2c1 | 7.89%
Cc1ccccc1NS(=O)(=O)c1nnc(NC(=O)c2ccccc2C)s1 | -15.6%
COc1cccc(OCC(O)CN2CCN(C)CC2)c1.O=C(O)C(=O)O (stereo not shown) | 15.3%
CC1(C)Cc2c(c(-c3ccco3)nc3sc4c(NCC5CCCO5)ncnc4c23)CO1 (stereo not shown) | 16.5%
Cc1cnc(C(=O)Nc2ccc(C(C)C)cc2)cn1 | 8.65%
O=C(CCCc1nc(-c2ccccc2)no1)NC1CCCC1 | 8.49%
COc1ccc(CN(C)c2ncnc(N)n2)cc1 | 12.9%
COc1ccccc1N(Cc1cc2cccc(C)c2[nH]c1=O)C(=O)C(C)C | 9.48%
CCOc1ccccc1-c1nc(C(N)=O)c2[nH]c(=O)n(-c3ccc(F)cc3)c2n1 | -4.73%
CCN(CC)C(=O)c1cc([N+](=O)[O-])cc2c1-c1ccc([N+](=O)[O-])cc1C2=C(C#N)C#N | 4.68%

Compound | hERG current change (%, negative = inhibition) at 1uM
O=C(NCc1ccccc1)c1csc2c1CCCCC2 | 13.4%
CCn1c(SCC(=O)Nc2cc3oc4ccccc4c3cc2OC)nnc1-c1cccs1 | 9.72%
O=C(Nc1ccc(S(=O)(=O)Nc2nccs2)cc1)C1CC(=O)N(c2ccc(Cl)cc2)C1 (stereo not shown) | 15.9%
O=c1c(Cl)c(N/N=C/c2ccc(Br)cc2)cnn1-c1ccccc1 | 11.3%
COc1cc(C)ccc1S(=O)(=O)NC1CC(C)(C)NC(C)(C)C1 | 6.5%
CC(=O)OCc1c(C(F)(F)F)nn(C)c1Oc1cccc(C(F)(F)F)c1 | -1.36%
CC1(c2ccc3ccccc3c2)NC(=O)N(CC(=O)N2CCC(C(N)=O)CC2)C1=O (stereo not shown) | 10.9%
O=C(NCCc1ccccc1F)C1CCCN1S(=O)(=O)c1ccccc1 (stereo not shown) | -6.4%
O=C(Oc1csc(=S)n1C(=O)c1ccccc1)c1ccccc1 | 7.91%
O=[N+]([O-])c1cc(-c2cnc3ccccc3n2)ccc1Oc1ccc(Cl)cc1 | 3.25%
CC1(C)Oc2ccccc2OC1(O)c1ccc2ccccc2n1 (stereo not shown) | 14.2%
CC(=O)N(c1cccc(C)c1)C1SC(=O)N(c2ccccc2)C1=O (stereo not shown) | 8.87%
Cc1ccc(OCC(=O)N(C)Cc2ccccc2)c([N+](=O)[O-])n1 | -3.91%
O=C(c1ccco1)N1CCN(C(c2ccccc2)c2nnnn2Cc2cccs2)CC1 (stereo not shown) | -3%
Cn1cccc1Cc1nnc(SCC(=O)NCc2ccc(F)cc2)n1-c1ccc(F)cc1 | -11%
Cn1c(=O)n(C)c2cc(/C=C3/NC(=O)N(Cc4ccccc4)C3=O)ccc21 | 8.11%
COc1ccc(N(CC(=O)Nc2c(C)n(C)n(-c3ccccc3)c2=O)S(=O)(=O)c2ccccc2)cc1OC | 2.19%
O=[N+]([O-])c1ccc(/C=N/Nc2nc(N3CCCCC3)nc(N3CCCCC3)n2)o1 | 10.8%
Cc1cccc(C(=O)N[C@H](C(=O)Nc2ncc(C)s2)C(C)C)c1 | 18.7%
CN(CC(=O)NCc1ccccc1Cl)CC(=O)Nc1ccccc1Br | 4.04%
O=C1NC(=O)N(c2ccccc2)C(=O)/C1=C/c1ccc([N+](=O)[O-])s1 | 9.71%
Oc1c(C(Nc2cccc(C(F)(F)F)c2)c2cccnc2)ccc2cccnc12 (stereo not shown) | 13.6%

Compound | hERG current change (%, negative = inhibition) at 1uM
O=P(O)(O)O.c1ccc(CSCCc2ccncc2)cc1 | 5.33%
COc1ccccc1C(=O)C1CCCN(C(=O)c2ccccc2Cl)C1 (stereo not shown) | 15.7%
O=c1c2ccccc2[nH]c(=S)n1-c1cccnc1 | 10.6%
CCc1ccc2[nH]c(=O)c(CN(CCN(CC)CC)C(=S)NCc3ccco3)cc2c1 | -15.2%
CCCCC(=O)Nc1ccc2c(c1)nc(CCN1CCN(c3ccccn3)CC1)n2C | -15.3%
CCc1cc2c(=O)c(-c3ccc(F)cc3)c(C)oc2cc1OCC(=O)O | 16.4%
O=C(CNC(=O)c1ccc(Br)cc1)Nc1ccc(Br)cc1C(=O)c1ccccc1 | 14.3%
Cc1cc(C)c(OCC(=O)Nc2ccc(S(=O)(=O)N3CCOCC3)cc2)c(C)c1 | 10.5%
Cl.Nc1nc2cc3ccccc3cc2[nH]c1=O | 10.9%
CCOc1ccc(NC(=O)CS(=O)(=O)c2cn(CC)c3ccccc23)cc1 | 17%
COc1cc(CNCCO)ccc1OCCc1ccccc1 | 9.58%
NC(N)=NS(=O)(=O)c1ccc(N=C2C(=O)Nc3ccccc32)cc1 | -11.4%
CC(O)CN1CC(O)=C(c2nc3ccccc3s2)C1=N (stereo not shown) | 13.1%
CCc1nnc(NC(=O)c2ccc(S(=O)(=O)N3CCN(Cc4ccccc4)CC3)cc2)s1 | 12.2%
Cc1cc(Cl)c2oc(C(=O)N(C)C3CCOC3)c(C)c2c1 (stereo not shown) | 10%
CC1(C(=O)NCCCNc2ncc(C(F)(F)F)cc2Cl)C=CCN1C(=O)c1ccccc1 (stereo not shown) | -7.46%
COc1ccc(/C=C2\N=C(c3ccc(C)cc3)OC2=O)cc1 | 14%
CCOc1ccc(NC(=O)c2ccc(-n3cccn3)nc2)cc1 | 16%
CN(CC(=O)Nc1c(Cl)cccc1Cl)C(=O)CNC(=O)c1ccco1 | 8.71%
C[C@H](NC(=O)c1ccccc1Cl)C(=O)OC(C(=O)Nc1cc(C(F)(F)F)ccc1Cl)c1ccccc1 (stereo partly shown) | 16%
CCCSc1nsc(NC(=O)Nc2ccc(F)cc2F)n1 | 13.6%
COC(=O)c1ccc(C2/C(=C(\O)c3ccc4c(c3)OCCO4)C(=O)C(=O)N2CCCN2CCOCC2)cc1 (stereo not shown) | 15%

Compound | hERG current change (%, negative = inhibition) at 1uM
COc1ccc(NC(=O)CC(C)n2ccnc2)cc1 (stereo not shown) | 8.97%
O=C(Cc1cccs1)Nc1nnc(SCC(=O)NC2CCCCC2)s1 | 12.2%
CCOC(=O)C(C)Sc1nc2c(c(=O)[nH]c(=O)n2C)n1Cc1ccc(Cl)cc1 (stereo not shown) | -78.7%
Cc1nn(C2CCOC(C)(C)C2)c2c1C(c1ccc3c(c1)OCO3)SCC(=O)N2 (stereo not shown) | 7.51%
Cc1cc2c(nc1C)CCCN2C[C@@H](C)O/N=C1/[C@H]2CCn3c(=O)n(-c4ccccc4)c(=O)n3[C@H]2[C@H](O)[C@@H]2O[C@H]12 | -10.3%
O=C1C2CC=C(Cl)CC2C(=O)N1CC1OCCc2ccccc21 (stereo not shown) | 1.88%
COC(=O)CC1C(=O)NCCN1C(=O)OC(C)(C)C (stereo not shown) | 9.84%
C#CCOCCOCCOCCNc1nc(N2CCN(C(=O)C([C@@H](C)CC)n3cc(C(N)CC(C)C)nn3)CC2)nc(N2CCN(C(=O)[C@H](CCC(=O)O)n3cc(C(N)CC(C)C)nn3)CC2)n1.Cl (stereo partly shown) | 14.6%
Nc1ccn(CC(=O)NCCCc2ccccc2)c(=O)n1 | 14.2%
CCCc1nnc(NC(=O)CCC(=O)N2CCC(C)CC2)s1 | 8.62%
O=C(CN1CCN(S(=O)(=O)c2ccc(Br)cc2)CC1)Nc1ccc2c(c1)OCCO2 | 7.24%
O=C(CSC(=S)N1CCCC1)NCC(=O)Nc1ccccc1Br | 1.4%
CC(C)C(=O)Nc1ccc2c(c1)C(=O)NC2=O | 13.9%
CCOC(=O)c1c(-c2ccccc2)oc2cc(CN(C)C)c(O)c(CN(C)C)c12 | -22.8%
COc1ccccc1CN1CCCC(C(=O)c2ccccc2OC)C1 (stereo not shown) | -4.58%
O=C(COc1ccc(Cl)cc1Cl)N/N=C/C1CC=CCC1 (stereo not shown) | 5.6%
O=C1CCC/C1=C/Nc1ccc(Cl)cc1 | -9.18%
COc1ccc(CCN2C(=O)C3C(C2=O)C2C=CC3C23CC3)cc1OC (stereo not shown) | -1.71%
Cc1cccc(-n2ncc(C(=O)NC3CCCC3)c2C2CCN(C(=O)OC(C)(C)C)CC2)c1 | 4.55%
